{"source": "paper PMC4816394", "about": "“Structural and Genetic Studies Demonstrate Neurologic Dysfunction in Triosephosphate Isomerase Deficiency Is Associated with Impaired Synaptic Vesicle Dynamics” (PLoS Genetics, 2016)", "target": "the molecule itself", "test": "SEC; purified TPI diluted to 15 uM in mobile phase, 100 ul injected, elution monitored at 280 nm; peak areas integrated for the relative monomer and dimer populations; dimer to monomers"}
{"protein": "human triosephosphate isomerase, wild type (hTPI^WT) (enzyme, Triosephosphate isomerase, human; also called TIM; source: purified as outlined previously [18]) not shown", "values": [{"measurement": "percent dimer (dimer:monomer ratio of peak areas)", "result": "~80", "unit": "%"}]}
